# Laboratory results taken from article PMC4336329 (PLoS ONE, 2015).
# The whole screen tested about 310,000 compounds, of which about 2,200 (0.71%) showed an effect of 50% or more. Effects have a minus sign here. Some of the results follow.
# Target: human ether-à-go-go-related gene (hERG) potassium channel (human, UniProt Q12809)
# Test: primary screen, population patch clamp on CHO cells stably expressing hERG
# Chain of human ether-à-go-go-related gene (hERG) potassium channel (Q12809 whole entry, looked up): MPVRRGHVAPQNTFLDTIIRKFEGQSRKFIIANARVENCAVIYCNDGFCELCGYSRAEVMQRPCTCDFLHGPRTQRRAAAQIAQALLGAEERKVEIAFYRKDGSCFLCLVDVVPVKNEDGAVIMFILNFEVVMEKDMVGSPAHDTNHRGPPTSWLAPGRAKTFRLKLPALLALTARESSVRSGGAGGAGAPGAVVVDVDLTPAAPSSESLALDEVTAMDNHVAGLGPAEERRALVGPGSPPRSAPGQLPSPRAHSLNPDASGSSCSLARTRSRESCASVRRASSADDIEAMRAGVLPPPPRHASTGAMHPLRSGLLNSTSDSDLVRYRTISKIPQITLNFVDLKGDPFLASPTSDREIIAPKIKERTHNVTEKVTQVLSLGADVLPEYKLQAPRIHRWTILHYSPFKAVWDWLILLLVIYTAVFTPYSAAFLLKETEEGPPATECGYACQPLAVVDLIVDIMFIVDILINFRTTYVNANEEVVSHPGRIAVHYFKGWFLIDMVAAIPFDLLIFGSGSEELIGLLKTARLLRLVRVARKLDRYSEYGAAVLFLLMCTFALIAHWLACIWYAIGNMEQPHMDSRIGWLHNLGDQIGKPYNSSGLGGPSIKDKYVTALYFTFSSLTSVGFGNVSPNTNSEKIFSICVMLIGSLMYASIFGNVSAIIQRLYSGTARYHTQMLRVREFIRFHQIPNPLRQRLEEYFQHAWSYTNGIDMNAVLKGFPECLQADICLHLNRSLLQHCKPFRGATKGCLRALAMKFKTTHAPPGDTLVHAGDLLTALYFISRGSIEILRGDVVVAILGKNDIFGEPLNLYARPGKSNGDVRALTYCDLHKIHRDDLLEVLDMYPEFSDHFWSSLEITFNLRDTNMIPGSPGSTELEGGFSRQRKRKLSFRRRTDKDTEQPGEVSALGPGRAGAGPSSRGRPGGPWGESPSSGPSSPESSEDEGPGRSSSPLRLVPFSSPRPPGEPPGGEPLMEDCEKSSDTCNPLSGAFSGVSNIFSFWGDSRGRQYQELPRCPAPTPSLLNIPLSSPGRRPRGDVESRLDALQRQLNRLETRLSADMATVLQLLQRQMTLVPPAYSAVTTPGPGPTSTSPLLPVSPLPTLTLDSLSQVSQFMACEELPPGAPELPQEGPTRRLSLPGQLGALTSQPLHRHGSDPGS
row,Structure (SMILES),"hERG current change (%, negative = inhibition) at 1uM [%]"
1,CNS(=O)(=O)Cc1ccc2[nH]cc(CCN(C)C)c2c1,12.5
2,Cc1ccc(NC(=O)c2ccc(S(=O)(=O)Nc3c(C)n(C)n(-c4ccccc4)c3=O)cc2)nc1,15.6
3,O=C(Oc1cncc(Cl)c1)c1sccc1Cl,10.2
4,CCCC(=O)N(C1CC(C)C(C#N)(C#N)C1(C#N)C#N)N(C)C (stereo not drawn),9.61
5,Cc1ccc2c(c1)C(c1ccccc1)N(C(=O)c1ccc(S(=O)(=O)N3CCOCC3)cc1)CC(=O)N2 (stereo not drawn),0.736
6,CCc1nc(N2CCN(C(C)=O)CC2)c2c3c(sc2n1)CCCC3,17.3
7,O=C(c1ccco1)N1CCN(S(=O)(=O)N2CCOCC2)CC1,10.2
8,CCOc1ccccc1C(=O)NCC(=O)OCCOc1cccc(Cl)c1,9.05
9,CC1Cn2c(nnc2-c2cccs2)S1 (stereo not drawn),9.45
10,O=C(COc1ccc2c(C(F)(F)F)cc(=O)oc2c1)Nc1ccc2c(c1)OCCO2,9.7
11,O=C(NN=C1CCC(c2ccccc2)CC1)c1cc2c(s1)CCCC2 (stereo not drawn),-1.87
12,COc1cc(OC)cc(-c2nnc(SCC(=O)Nc3cccc(C(=O)O)c3)s2)c1,9.97
13,O=C(CN1CCN(c2ccc(O)cc2)CC1)Nc1ccc2c(c1)OCCO2,4.85
14,O=C(/C=C\Nc1ccc2c(c1)OCO2)c1cccs1,18.5
15,Cc1noc(C)c1C(=O)OCC(=O)Nc1cccc(S(N)(=O)=O)c1,4.05
16,C[C@@H](NC(=O)[C@@H]1Cc2ccccc2CN1C(=O)OC(C)(C)C)C(=O)NCc1ccco1,8
17,Cc1cc(C)c(-c2cc(NC(=O)COC(=O)c3ccc(C#N)cc3)n(-c3ccccc3)n2)cc1C,6.15
18,Cc1cc2cc3c(cc2nc1SCC(=O)N1CCN(C(=O)c2ccco2)CC1)OCO3,-1.38
19,O=C(CCCCCn1c(=O)[nH]c2ccsc2c1=O)N1CCCCC1,11.9
20,COc1ccc(Cn2c(O)c(C=Nc3ccc(OC)cc3)c3ccccc3c2=O)cc1,12.8
21,Clc1ccc(C2[C@H]3CN(CC4CCCCC4)[C@H](c4ccccc4)C34CC2(c2ccccc2)C4)cn1 (stereo partly drawn),10.9
22,CC(C)OP(=O)(OC(C)C)C(O)c1cccc([N+](=O)[O-])c1 (stereo not drawn),13.6

row,Structure (SMILES),"hERG current change (%, negative = inhibition) at 1uM [%]"
1,CCOCCCNC(=S)Nc1ccc(Br)cc1Cl,1.96
2,COc1ccc(C(=O)N(C)CCCC2CCCC2)cc1OC1CCN(C(C)C)CC1,-36.1
3,COc1cccc(NC(=O)Nc2cc(NC(=O)Nc3cccc(OC)c3)c(C)nc2C)c1,16.1
4,CN(C)S(=O)(=O)c1ccc(N2CCCC2)c(C(=O)Nc2ccc(Br)cc2F)c1,9.99
5,Cc1ccc(NC(=O)NCc2ccccn2)cc1,9.87
6,COc1ccccc1C(=O)N1CCNC(=O)C1CC(=O)Nc1ccc(Cl)cc1 (stereo not drawn),3.58
7,COc1ccc(/C=C/C(=O)c2ccc3c(c2)OCO3)cc1OC,1.11
8,N/C(=N\OC(=O)COc1ccc2ccccc2c1)c1ccccn1,7.41
9,CCCN(CC(=O)Nc1ccccc1C)C(=O)C1CCCN(C(=O)c2ccc(Cl)cc2)C1 (stereo not drawn),4.07
10,Nc1c(-c2ccccc2)c(CN2CCOCC2)nn1-c1cccc([N+](=O)[O-])c1,-0.675
11,CCc1ccc(NC(=O)C(=O)NNC(=O)COc2cccc(OC)c2)cc1,9.6
12,COc1ccc(OCC(NS(=O)(=O)c2ccc(-n3cnnn3)cc2)C(C)C)cc1 (stereo not drawn),-5.76
13,O=C(NCCc1ccccc1)C(=O)NCC1CCCN1S(=O)(=O)c1ccccc1 (stereo not drawn),-2.62
14,CCOc1cc(C2C3=C(CC(C)(C)CC3=O)Nc3n[nH]c(C)c32)ccc1O (stereo not drawn),5.89
15,CC1CCN(Cc2c(C(=O)N/N=C/c3cccc(Cl)c3)nnn2-c2nonc2N)CC1,18.9
16,Cc1ccccc1-n1c(=S)[nH]c2nc3c(cc2c1=O)COC(C)(C)C3,16.8
17,CCc1ccc[n+](-c2[nH]c(=O)sc2/C=N/N=C(\[O-])c2ccncc2)c1,14.9
18,NC(=O)CSc1ccc(F)cc1,29.4
19,CCOC(=O)N1CCN(C(=O)CN(c2cccc(OC)c2)S(C)(=O)=O)CC1,-6.14
20,CC1CCN(S(=O)(=O)c2ccc3ncn(CC(=O)N(C)C4CCCCC4)c(=O)c3c2)CC1,8.99
21,CCCC(=O)Nc1cc(OCC)c(NC(=O)NC2CCCCC2)cc1OCC,5.12
22,O=C(CNS(=O)(=O)c1ccc(Cl)cc1)NC1CCCCC1,-14.1

row,Structure (SMILES),"hERG current change (%, negative = inhibition) at 1uM [%]"
1,CCOC(=O)C(C(C)=O)C(c1ccc(OCCC(C)C)cc1)C(C(C)=O)C(=O)OCC (stereo not drawn),12.1
2,Fc1cccc(-n2ncc(-c3nnnn3-c3ccccc3)c2C(F)(F)F)c1,-1.24
3,O=C1C=C(NCc2ccco2)CC(c2ccc(Cl)cc2)C1 (stereo not drawn),-34.8
4,O=C(CC1(O)C(=O)N(Cc2ccc3c(c2)OCO3)c2ccccc21)c1ccccc1 (stereo not drawn),8.97
5,Cc1ccccc1C(=O)Nc1cccc(NC(=O)c2ccc(-c3ccc(Br)cc3)o2)c1,16.5
6,COC(=O)c1ccc(NC2(C#N)C(=O)Nc3ccccc32)cc1 (stereo not drawn),19.7
7,Cl.O=C(CN1CCN(C2CCCCC2)CC1)Nc1cccc2ccccc12,4.28
8,Br.O=C(CN1CCCCC1)c1ccccc1Cl,1.65
9,O=C(NNC(=O)c1cccs1)Nc1cccc(Cl)c1,3.77
10,COc1cc(OC)c(NC(=O)CCc2nc(-c3cccs3)no2)cc1Cl,12.6
11,COc1ccc(NC(=O)C2CCN(S(=O)(=O)c3cccc4nonc34)CC2)c(OC)c1,9.22
12,COc1ccc(C(CNC(=O)c2cccc(NS(=O)(=O)c3ccc(Br)cc3)c2)N(C)C)cc1 (stereo not drawn),-9.93
13,CN(C)S(=O)(=O)c1cccc(C(=O)N(Cc2ccc(F)cc2)Cc2ccco2)c1,-14.6
14,NC(N)=N/N=C/c1cn(-c2ccccc2)nc1-c1cccs1.O=[N+]([O-])O,1.72
15,COc1cc(N2N=C(c3ccccc3)CC2c2ccccc2)c(C=O)cc1C=O (stereo not drawn),10.7
16,NS(=O)(=O)c1ccc(CNC(=S)NC2CCCCC2)cc1,14.5
17,Cc1noc(C)c1CN(C(=S)NC(C)C)c1ccccc1,27.5
18,O=C(CSc1nnc(-c2cccs2)n1Cc1ccccc1)NCc1ccc2c(c1)OCO2,2
19,O=C(CN1C(=O)NC2(CCCC2)C1=O)OCCOc1ccc(Br)cc1,5.87
20,CCOc1ccc(C(=O)NC2CC3CCCC(C2)N3CC(C)C)cc1 (stereo not drawn),-17.2
21,COc1cccc(CC2(CO)CCCN(Cc3c(C)cc(C)cc3-n3cccn3)C2)c1 (stereo not drawn),-93.1
22,CSc1ccc(C(=O)C2CCCN(Cc3ccn[nH]3)C2)cc1 (stereo not drawn),9.13

row,Structure (SMILES),"hERG current change (%, negative = inhibition) at 1uM [%]"
1,O=C(NC(=S)N1CCCC1)c1cccc([N+](=O)[O-])c1,17.1
2,Cc1cc(O)c(NC(=O)c2cc([N+](=O)[O-])ccc2Cl)cc1C,5.91
3,O=C(NCCCC(=O)N1CCCCC1)c1ccc(Cl)cc1,10.6
4,NC(=O)c1sc2nc(-c3ccco3)ccc2c1N,13
5,Cc1ccccc1CC1SC(N=C(N)N)=NC1=O (stereo not drawn),11.4
6,OC1CCN(C(c2ccc3ncccc3c2)c2nnnn2C2CCCCC2)CC1 (stereo not drawn),-5.3
7,O=C(CSc1nc2ccccc2s1)Nc1nccs1,10.9
8,Cc1cc2oc(=O)cc(CN(C)Cc3ccccc3F)c2cc1Cl,14.6
9,CN(CCCN1c2ccccc2CCc2ccccc21)CC(=O)c1ccc(Cl)cc1.Cl,7.83
10,O=C(CSc1nncc(=O)[nH]1)NC1CCCCC1,19.2
11,Cc1noc(C)c1S(=O)(=O)N(CC(=O)N1CCCCCC1)c1ccc(C(C)C)cc1,2.73
12,Cc1ccc(C)c(NC(=O)CCN2CC(C)CC(C)C2)c1 (stereo not drawn),17.5
13,COc1ccccc1/C=C1/SC(=O)N(CCC(=O)Nc2ccc(S(=O)(=O)Nc3nccs3)cc2)C1=O,4.27
14,CN(C)S(=O)(=O)c1ccc(C(=O)NCc2nnc(SCC(=O)NCc3ccco3)o2)cc1,10.3
15,CSc1nc(-c2ccccc2)c2cc(Cl)ccc2n1,17.1
16,CCN(CC)CC#CCC(C)(c1ccccc1)c1ccccc1.Cl,-13.7
17,O=[N+]([O-])c1cccc(N/N=C/c2ccc(N3CCOCC3)cc2)c1,12.4
18,O=C(CCCN1C(=O)c2cccc3cccc(c23)C1=O)NC1CCS(=O)(=O)C1 (stereo not drawn),23.1
19,Cc1sc2nc(CN(Cc3cccs3)C(=O)C3CC3)[nH]c(=O)c2c1C,3.78
20,CCOC(=O)c1c(NC(=O)CSc2nncs2)sc(C)c1C,17.3
21,COc1cc2[nH]c(=S)n(Cc3ccc(C)o3)c(=O)c2cc1OC,2.05
